Data from the supplement of paper PMC4604168 (melanoma cell lines).
Some of the results follow. Single values are uncertain, as repeats are few or missing.

What was measured:
Assay in all cases: cell count relative to DMSO control; melanoma cells; higher = more viable cells
Conditions in all cases: library dose: low library concentration; 72 h
MZ2-MEL = test system: MZ2-MEL
MeWo = test system: MeWo
RPMI7951 = test system: RPMI7951
RVH-421 = test system: RVH-421
SkMel28 = test system: SkMel28
SkMel30 = test system: SkMel30
SkMel5 = test system: SkMel5
UACC257 = test system: UACC257
UACC62 = test system: UACC62
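Note: cell number obtained by counting DAPI-stained nuclei in high-throughput microscope images with image analysis software, screen run in 1,536-well plates.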

SMILES	cell count (MZ2-MEL) [%]	cell count (MeWo) [%]	cell count (RPMI7951) [%]	cell count (RVH-421) [%]	cell count (SkMel28) [%]	cell count (SkMel30) [%]	cell count (SkMel5) [%]	cell count (UACC257) [%]	cell count (UACC62) [%]
C[C@]12O[C@H](C[C@]1(O)CO)n1c3ccccc3c3c4c(c5c6ccccc6n2c5c31)CNC4=O [Lestaurtinib] + Oc1nc(-c2ccc(C(F)(F)F)cc2)nc2c1CSCC2 [XAV939] (first compound 0.004 µM, partner dose 2 µM)	120	87.4	87.3	126	103	87.2	84.4	88.4	91
C[As](C)SC[C@H](NC(=O)CC[C@H](N)C(=O)O)C(=O)NCC(=O)O [Darinaparsin] + O=C(Nc1ccccc1)c1cc([N+](=O)[O-])ccc1Cl [GW9662] (first compound 0.4 µM, partner dose 2 µM)	98.8	94.7	108	99.5	87.5	106	86.5	91.2	103
C[C@]12O[C@H](C[C@]1(O)CO)n1c3ccccc3c3c4c(c5c6ccccc6n2c5c31)CNC4=O [Lestaurtinib] + N#Cc1c(O)c2c(-c3ccc(-c4ccccc4O)cc3)csc2[nH]c1=O [A769662] (first compound 0.004 µM, partner dose 2 µM)	101	90.2	107	114	101	84.2	108	87.7	86.7
C[C@]12O[C@H](C[C@]1(O)CO)n1c3ccccc3c3c4c(c5c6ccccc6n2c5c31)CNC4=O [Lestaurtinib] + CCN(CC)CCNC(=O)c1c(C)[nH]c(/C=C2\C(=O)Nc3ccc(F)cc32)c1C [sunitinib] (first compound 0.004 µM, partner dose 0.4 µM)	106	77.8	97.4	112	92.4	73.1			76.6
C[C@]12O[C@H](C[C@]1(O)CO)n1c3ccccc3c3c4c(c5c6ccccc6n2c5c31)CNC4=O [Lestaurtinib] + Cc1cc(N2CCOCC2)cc2[nH]c(-c3c(NC[C@@H](O)c4cccc(Cl)c4)cc[nH]c3=O)nc12 [BMS536924] (first compound 0.004 µM, partner dose 0.2 µM)	98	82.7	112	109	93.2	64.7	83.2	71.5	102
C[As](C)SC[C@H](NC(=O)CC[C@H](N)C(=O)O)C(=O)NCC(=O)O [Darinaparsin] + COc1cc2ncnc(Nc3ccc(Oc4ccccc4)cc3)c2cc1OC [SrcI1] (first compound 0.4 µM, partner dose 2 µM)	100	93.5	114	104	83.5	105	98.2	75.6	92.3
C[C@]12O[C@H](C[C@]1(O)CO)n1c3ccccc3c3c4c(c5c6ccccc6n2c5c31)CNC4=O [Lestaurtinib] + CCCCCCCCc1ccc(CCC(N)(CO)CO)cc1 [fingolimod] (first compound 0.004 µM, partner dose 2 µM)	101	88.1	98.3	97.6	83.5	84.3			92.8
C[C@]12O[C@H](C[C@]1(O)CO)n1c3ccccc3c3c4c(c5c6ccccc6n2c5c31)CNC4=O [Lestaurtinib] + CCCS(=O)(=O)Nc1ccc(F)c(C(=O)c2c[nH]c3ncc(Cl)cc23)c1F [PLX4720] (first compound 0.004 µM, partner dose 0.08 µM)	91.1	94.9	108	96.4	96.5	68.3			94.7
C[C@]12O[C@H](C[C@]1(O)CO)n1c3ccccc3c3c4c(c5c6ccccc6n2c5c31)CNC4=O [Lestaurtinib] + C[C@@H](Oc1cc(-c2cnn(C3CCNCC3)c2)cnc1N)c1c(Cl)ccc(F)c1Cl [Crizotinib] (first compound 0.004 µM, partner dose 0.2 µM)		98.5	95.7	100	103	92			85.7
C[C@]12O[C@H](C[C@]1(O)CO)n1c3ccccc3c3c4c(c5c6ccccc6n2c5c31)CNC4=O [Lestaurtinib] + COc1ccc(Cl)c(Nc2nc3ccccc3nc2NS(=O)(=O)c2cccc(NC(=O)C(C)(C)N)c2)c1 [XL147] (first compound 0.004 µM, partner dose 0.8 µM)	91.7	91.5	89.6	86.3	95.3	87.6			92.8
C[C@]12O[C@H](C[C@]1(O)CO)n1c3ccccc3c3c4c(c5c6ccccc6n2c5c31)CNC4=O [Lestaurtinib] + NC1(c2ccc(-c3nc4ccn5c(=O)[nH]nc5c4cc3-c3ccccc3)cc2)CCC1 [MK2206] (first compound 0.004 µM, partner dose 0.4 µM)	93.4	57.8	78	82.9	71.4	53.5			66.5
C[As](C)SC[C@H](NC(=O)CC[C@H](N)C(=O)O)C(=O)NCC(=O)O [Darinaparsin] + COc1cc(N2CCC(N3CCN(C)CC3)CC2)ccc1Nc1ncc(Cl)c(Nc2ccccc2S(=O)(=O)C(C)C)n1 [NVP-TAE684] (first compound 0.4 µM, partner dose 0.08 µM)		78.3	93.3	108	85.7	97.6	90.5	79.5	97.1
